Experimental data taken from PubChem BioAssay AID493208 (National Center for Advancing Translational Sciences (NCATS), 2011).
Hit rate of the full screen: of about 44,000 compounds, about 340 (0.77%) were called active. Not shown: some 5% with an inconclusive outcome. Calls come from the whole dose curve; as a rule, active = well fitted inhibition curve with a large enough effect; inconclusive = small, poorly fitted or top-dose-only effect; inactive = flat fitted curve, though single readings scatter. The list shows a part of the results.

assay: Acumen qHTS Assay for Inhibitors of the mTORC1 Signaling Pathway in MEF (Tsc2-/-, p53-/-) Cells: Sytravon; conditions: phospho-rpS6 immunofluorescence/PI, 24 h; series mostly up to 38.3 µM; activity change, negative = inhibition: at the top concentration;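 note: plate controls were DMSO for no effect and rapamycin for full effect; nearly all actives have a fitted effect of over 50% in size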
Summary of the method: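 Readout is phospho-S6 Alexa 488 signal normalized to PI per well, reported as % active cells with thresholds set from rapamycin (7.5 nM) and DMSO controls. Cells: Tsc2-/-, p53-/- MEFs, 24 hrs compound at 37 C; PI cell number serves as viability.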

Activity change, negative = inhibition, inactive:
Cc1ccc(-n2c(SCC(=O)N3CCCc4ccccc43)nc3c([nH]c4ccccc43)c2=O)cc1 1.23%, CCc1ccccc1-n1nnc(-c2nsc(NC(=O)c3ccc(C)c(C)c3)n2)c1C -4.05%, CCc1ccc(OCCn2c(C3CC(=O)N(Cc4ccc(F)cc4)C3)nc3ccccc32)cc1 (configuration not stated) -0.988%, CC(C)(C)C(=O)Nc1ccccc1C(=O)OCc1cc(=O)n2ccsc2n1 14.1%, COCCCNC(=O)CSC1=Nc2ccccc2C2=NC(CCC(=O)NCc3ccc(OC)cc3)C(=O)N12 (configuration not stated) 0.905%, CCOC(=O)c1c(C)[nH]c(C)c1S(=O)(=O)N(C)CC(=O)Nc1ccc(C)cc1Br 2.47%, Cc1ccc(-c2cn3ccc(C)cc3n2)cc1 -4.42%, CC(C)CCn1c(/C=C/c2ccccc2)nc2ccccc21 -19.7%, Cc1cc(C)cc(NC(=O)CSc2nc3nccnc3c(=O)n2CCc2c[nH]c3ccccc23)c1 -3.07%, O=C(Nc1ccccc1Cl)N1CCSc2ccccc21 0%, CCOC(=O)Cn1c(=O)n(C2CCCCC2)c2nc(-c3c(F)cccc3Cl)nc(C(N)=O)c21 -9.24%, COC(=O)c1scc(-c2ccc(C)cc2)c1S(=O)(=O)Nc1cc(C)ccc1OC -27.1%, Cc1cccc(NC(=O)Cn2c(=O)n(CCCCCC(=O)NCc3ccc4c(c3)OCO4)c(=O)c3sccc32)c1 -8.31%, Cc1ccc(NC(=O)c2cnc3sc(N4CCOCC4)nn3c2=O)cc1N(C)C -1.65%, O=C(c1ccc2c(c1)N(Cc1ccccc1)C(=O)c1ccccc1S2(=O)=O)N1CCN(Cc2ccccc2)CC1 -0.539%, COc1ccc(Nc2nc(C)nc(N)c2S(=O)(=O)c2ccccc2)cc1 1.85%, CCOc1ccc(N2CC(NC(=O)C3CCCC3)CC2=O)cc1 (configuration not stated) -0.396%, CCCNC(=O)C1CCC(Cn2c(=O)c3sccc3n(CC(=O)NCc3cccc(OC)c3OC)c2=O)CC1 (configuration not stated) 3.51%, Cc1ccc(C)c(N2CCN(CCCNC(=O)c3ccc4nc(CCc5ccccc5)oc4c3)CC2)c1 -7.78%, COc1cccc(N2CC(NC(=O)c3cc(Cl)ccc3OC)CC2=O)c1 (configuration not stated) -0.525%, COc1ccc(OC)c(NS(=O)(=O)c2ccc(N3CCCCS3(=O)=O)cc2)c1 0%, CC(=O)c1cccc(NC(=O)CN(c2cc(C)cc(C)c2)S(=O)(=O)c2c(C)noc2C)c1 -2.14%, COc1ccc(C(=O)c2sc(Nc3ccccc3)nc2N)cc1 -16%, N#Cc1c(C(F)(F)F)cc(-c2cccs2)nc1SCC(=O)Nc1cccc(Cl)c1 -15.4%, COc1ccc(-c2onc(C)c2C)cc1S(=O)(=O)N(C)Cc1ccccc1 -11.8%, Cc1cc(-n2ccnc(NCCc3ccc(S(N)(=O)=O)cc3)c2=O)ccc1Br -8.83%, COc1ccc(NC(=O)c2ccco2)cc1NC(=O)c1cc(OC)c(OC)c(OC)c1 1.08%, Cc1cc(C)c2c(CC(=O)N(Cc3ccc(Cl)cc3)Cc3ccco3)coc2c1 -15.2%, O=C(Nc1ccccc1)c1nc[nH]c1C(=O)O -5.87%, CCOC(=O)CSc1nc2cc3c(cc2c(=O)n1Cc1ccc(C(=O)NCCc2ccc(OC)c(OC)c2)cc1)OCO3 -3.55%, COc1cc(OC)c(N(C)C(=O)c2c(C)oc3ncn(CC(C)C)c(=O)c23)cc1Cl 3.68%, Cc1c(-c2ccccc2)nc2c(Cl)cccc2c1C(=O)OCC(=O)c1ccc(F)cc1 -12.3%, Cc1ccc(NC(=O)Cn2cc(S(=O)(=O)Cc3ccc(F)cc3)c3ccccc32)cc1Cl 0%, COc1ccc(-c2cc(C(F)(F)F)nc(SCC(=O)NCCc3ccccc3)n2)cc1 -15.8%, CCOc1ccccc1C(=O)N(Cc1sccc1C)C1CCS(=O)(=O)C1 (configuration not stated) 3.19%, N#Cc1c(-n2ncnc2-c2ccc(F)cc2)sc2c1CCCCC2 2.92%, CCCSc1ncc(Cl)c(C(=O)Nc2sc3c(c2C(=O)OC)CCCC3)n1 2.91%, O=C(CSCc1cnn(-c2ccccc2)c1-n1cccc1)NCc1cccc(Cl)c1 1.38%, O=C(C1CCN(S(=O)(=O)c2ccc(Br)s2)CC1)N1CCN(c2cccc(C(F)(F)F)c2)CC1 -13.4%, Cc1ccc(S(=O)(=O)Nc2ccc3nc(-c4ccc(F)cc4)oc3c2)cc1 -2.02%, CC(C)(C)NC(=O)c1oc2ccccc2c1NC(=O)c1ccccc1F 6.88%, COc1cc(NC(=O)Cn2c(=O)ccc3cc(S(=O)(=O)N4CCCC4)ccc32)cc(OC)c1 1.91%, CCC(C)NC(=O)CCC(=O)N1Cc2ccccc2Oc2ncccc21 (configuration not stated) 1.88%, CC1=C(C(=O)N2CCN(c3ccccc3)CC2)C2(CCCCC2)OC1=O -4.54%, COc1ccc(CNC(=O)c2cc3ccccn3n2)cc1OC -0.681%, Cc1ccc(-n2nc(C)c(C(=O)O)c2-n2cccc2)cc1 -4.05%, Cc1ccc(CNC(=O)c2c(C)oc3ncnc(N4CCOCC4)c23)cc1 3.5%
